Where two headings read alike, the source gives them in different places. These are yes or no findings as the source states them, for the method shown. Binding seen in cells or lysates may run through a third protein. Some binding calls cover weakened binding; strength is not graded here. For some of these results: Where a sequence is shown, tags or fusion partners need not be part of it. Blank lines part the entries; values can stand above or below the molecule they belong to.
Key:
[1] = molecular target: T1, endogenous ERG (human (endogenous in HeLa)) (UniProt P11308); assay: co-IP; endogenous ERG immunoprecipitated with anti-ERG antibody and Protein G magnetic beads from HeLa lysates (IPLS buffer, 120 mM NaCl, 0.5% NP-40), lysates incubated 30 min at 37°C with or without RNase A (200 μg/ml); Western blot
T1 sequence: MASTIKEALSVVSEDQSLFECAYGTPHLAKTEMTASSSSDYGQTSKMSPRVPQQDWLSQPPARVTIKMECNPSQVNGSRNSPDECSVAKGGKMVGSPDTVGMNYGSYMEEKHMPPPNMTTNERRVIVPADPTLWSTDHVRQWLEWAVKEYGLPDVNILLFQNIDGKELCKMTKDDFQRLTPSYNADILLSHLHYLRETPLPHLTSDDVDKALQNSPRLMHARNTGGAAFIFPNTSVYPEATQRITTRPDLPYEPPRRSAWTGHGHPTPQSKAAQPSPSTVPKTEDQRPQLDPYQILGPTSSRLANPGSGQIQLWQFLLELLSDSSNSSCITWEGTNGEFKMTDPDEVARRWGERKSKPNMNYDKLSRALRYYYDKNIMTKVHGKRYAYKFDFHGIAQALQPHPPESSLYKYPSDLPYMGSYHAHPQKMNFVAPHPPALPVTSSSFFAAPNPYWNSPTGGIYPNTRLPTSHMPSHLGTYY

The chains behind the UniProt entries cited, without tags or fusion partners.
UniProt Q01844: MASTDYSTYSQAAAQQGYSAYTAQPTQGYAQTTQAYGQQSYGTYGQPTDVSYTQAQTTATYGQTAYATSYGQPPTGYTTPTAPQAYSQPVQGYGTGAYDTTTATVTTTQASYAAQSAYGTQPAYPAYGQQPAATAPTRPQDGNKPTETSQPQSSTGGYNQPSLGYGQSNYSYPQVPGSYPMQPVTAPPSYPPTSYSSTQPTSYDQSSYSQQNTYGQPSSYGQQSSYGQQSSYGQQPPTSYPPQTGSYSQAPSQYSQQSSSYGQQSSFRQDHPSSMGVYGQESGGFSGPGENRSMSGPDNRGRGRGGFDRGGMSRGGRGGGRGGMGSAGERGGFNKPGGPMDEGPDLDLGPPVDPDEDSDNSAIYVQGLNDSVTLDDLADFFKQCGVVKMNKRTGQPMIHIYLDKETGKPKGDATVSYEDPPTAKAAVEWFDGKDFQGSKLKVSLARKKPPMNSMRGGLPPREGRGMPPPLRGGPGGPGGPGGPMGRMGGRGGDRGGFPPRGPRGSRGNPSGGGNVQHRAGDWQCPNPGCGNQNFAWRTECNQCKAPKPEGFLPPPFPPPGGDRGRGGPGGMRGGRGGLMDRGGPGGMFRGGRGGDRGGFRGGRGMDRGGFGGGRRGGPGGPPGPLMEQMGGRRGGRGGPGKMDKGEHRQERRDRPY
UniProt Q15393: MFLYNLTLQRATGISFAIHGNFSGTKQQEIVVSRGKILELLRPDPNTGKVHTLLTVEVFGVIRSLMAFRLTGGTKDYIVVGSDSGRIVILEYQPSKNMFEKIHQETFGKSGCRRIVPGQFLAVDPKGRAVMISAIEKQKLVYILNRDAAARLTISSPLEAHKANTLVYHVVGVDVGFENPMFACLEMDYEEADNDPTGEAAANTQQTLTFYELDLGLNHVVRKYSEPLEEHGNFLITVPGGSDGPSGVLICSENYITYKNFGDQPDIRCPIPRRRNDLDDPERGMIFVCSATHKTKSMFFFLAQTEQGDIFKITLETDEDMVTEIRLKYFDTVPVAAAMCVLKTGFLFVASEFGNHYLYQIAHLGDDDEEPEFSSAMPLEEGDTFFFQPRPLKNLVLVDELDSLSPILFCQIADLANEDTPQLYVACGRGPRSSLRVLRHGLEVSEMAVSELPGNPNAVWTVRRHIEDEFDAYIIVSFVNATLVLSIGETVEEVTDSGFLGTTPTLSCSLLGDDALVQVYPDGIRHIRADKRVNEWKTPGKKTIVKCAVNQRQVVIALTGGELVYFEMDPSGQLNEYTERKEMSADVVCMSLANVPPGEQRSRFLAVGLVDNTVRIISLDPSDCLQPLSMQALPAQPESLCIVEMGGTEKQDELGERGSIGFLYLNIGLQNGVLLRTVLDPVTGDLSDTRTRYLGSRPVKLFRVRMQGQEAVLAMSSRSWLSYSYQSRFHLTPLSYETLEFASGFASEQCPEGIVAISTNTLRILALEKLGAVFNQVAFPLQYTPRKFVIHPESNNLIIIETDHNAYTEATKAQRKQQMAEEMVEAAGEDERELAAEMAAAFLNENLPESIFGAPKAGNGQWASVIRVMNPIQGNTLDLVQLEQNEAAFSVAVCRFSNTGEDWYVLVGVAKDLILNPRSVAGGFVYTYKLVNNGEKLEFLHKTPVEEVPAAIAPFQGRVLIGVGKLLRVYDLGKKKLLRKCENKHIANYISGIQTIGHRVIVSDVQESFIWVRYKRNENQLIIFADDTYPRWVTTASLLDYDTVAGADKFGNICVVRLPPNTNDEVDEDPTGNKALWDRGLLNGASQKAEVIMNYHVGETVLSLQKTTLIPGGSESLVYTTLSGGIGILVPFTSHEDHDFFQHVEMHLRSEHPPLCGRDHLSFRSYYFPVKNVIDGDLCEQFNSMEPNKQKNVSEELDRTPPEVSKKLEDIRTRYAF
UniProt Q13435: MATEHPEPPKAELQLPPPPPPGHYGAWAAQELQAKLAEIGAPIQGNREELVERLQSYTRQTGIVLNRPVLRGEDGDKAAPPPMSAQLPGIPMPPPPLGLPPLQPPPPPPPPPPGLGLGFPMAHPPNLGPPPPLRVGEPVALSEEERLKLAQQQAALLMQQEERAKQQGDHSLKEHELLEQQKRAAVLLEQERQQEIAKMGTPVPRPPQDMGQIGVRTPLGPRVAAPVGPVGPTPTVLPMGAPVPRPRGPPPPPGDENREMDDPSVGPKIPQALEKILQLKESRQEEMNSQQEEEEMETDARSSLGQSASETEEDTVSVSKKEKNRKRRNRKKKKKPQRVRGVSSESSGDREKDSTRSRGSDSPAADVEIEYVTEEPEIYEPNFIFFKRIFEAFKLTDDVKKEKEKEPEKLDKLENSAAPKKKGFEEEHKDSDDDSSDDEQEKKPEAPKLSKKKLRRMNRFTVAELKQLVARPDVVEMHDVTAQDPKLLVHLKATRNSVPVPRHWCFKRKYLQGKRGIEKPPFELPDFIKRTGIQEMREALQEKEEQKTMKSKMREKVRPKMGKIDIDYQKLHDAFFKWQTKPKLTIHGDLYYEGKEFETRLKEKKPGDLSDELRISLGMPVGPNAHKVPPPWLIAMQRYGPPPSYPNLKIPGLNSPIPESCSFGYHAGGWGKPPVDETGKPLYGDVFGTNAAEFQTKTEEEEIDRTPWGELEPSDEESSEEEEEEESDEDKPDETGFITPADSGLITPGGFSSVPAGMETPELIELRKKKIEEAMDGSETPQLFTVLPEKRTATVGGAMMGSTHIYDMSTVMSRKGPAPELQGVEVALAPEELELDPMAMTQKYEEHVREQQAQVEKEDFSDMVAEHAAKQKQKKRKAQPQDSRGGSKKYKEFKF
UniProt P08621: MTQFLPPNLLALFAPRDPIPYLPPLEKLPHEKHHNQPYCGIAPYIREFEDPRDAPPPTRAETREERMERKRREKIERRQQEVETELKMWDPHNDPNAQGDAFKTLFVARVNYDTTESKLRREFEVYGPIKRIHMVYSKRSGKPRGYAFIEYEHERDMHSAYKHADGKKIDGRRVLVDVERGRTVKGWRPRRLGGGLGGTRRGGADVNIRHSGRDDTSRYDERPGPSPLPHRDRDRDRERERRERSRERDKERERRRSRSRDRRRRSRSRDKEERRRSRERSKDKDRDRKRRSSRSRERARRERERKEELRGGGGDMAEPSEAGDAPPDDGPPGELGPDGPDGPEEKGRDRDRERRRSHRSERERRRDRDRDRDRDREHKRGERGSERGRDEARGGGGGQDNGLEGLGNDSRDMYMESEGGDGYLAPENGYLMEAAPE

FLAG-tagged ERG (human) = molecular target: T2, FLAG-tagged ERG (human) (UniProt P11308); assay: co-IP; HEK293 cells transfected with FLAG-tagged ERG family members and HA-RBFOX1 or Myc-RBFOX2; anti-FLAG M2 magnetic beads, washes with IPLS and IPMS (500 mM NaCl) buffers; Western blot
T2 sequence: T1 sequence

FLAG-tagged FEV (human) = molecular target: T3, FLAG-tagged FEV (human) (UniProt Q99581); assay: as above
T3 sequence: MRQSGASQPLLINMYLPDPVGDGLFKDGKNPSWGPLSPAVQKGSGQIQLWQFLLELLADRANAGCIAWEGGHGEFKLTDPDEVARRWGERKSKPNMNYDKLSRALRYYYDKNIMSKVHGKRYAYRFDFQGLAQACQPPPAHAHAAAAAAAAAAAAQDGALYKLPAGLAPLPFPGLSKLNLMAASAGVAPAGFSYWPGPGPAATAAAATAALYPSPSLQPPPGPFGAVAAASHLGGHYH

FLAG-tagged FLI1 (human) [2] = molecular target: T4, FLAG-tagged FLI1 (human) (UniProt Q01543); assay: as above
T4 sequence: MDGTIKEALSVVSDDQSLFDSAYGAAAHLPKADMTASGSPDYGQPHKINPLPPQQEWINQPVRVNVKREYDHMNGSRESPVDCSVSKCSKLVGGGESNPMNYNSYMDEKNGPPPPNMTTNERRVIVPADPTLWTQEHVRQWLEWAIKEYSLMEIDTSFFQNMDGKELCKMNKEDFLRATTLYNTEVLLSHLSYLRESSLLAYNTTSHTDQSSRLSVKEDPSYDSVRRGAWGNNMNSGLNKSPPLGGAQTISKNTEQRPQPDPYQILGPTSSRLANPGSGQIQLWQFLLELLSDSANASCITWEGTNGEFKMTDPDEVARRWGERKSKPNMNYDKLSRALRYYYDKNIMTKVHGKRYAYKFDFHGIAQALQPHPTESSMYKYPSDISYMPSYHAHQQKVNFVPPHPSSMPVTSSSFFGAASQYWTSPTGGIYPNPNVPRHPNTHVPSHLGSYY

FLAG-tagged EWS (human) = FLAG-tagged EWS (human) (UniProt Q01844); assay: co-IP; RNase A-treated lysates of HEK293 cells transfected with Myc-RBFOX2 and FLAG-tagged proteins; anti-FLAG immunoprecipitation, anti-Myc and anti-FLAG Western blot
FLAG-tagged FLI1 (human) [3] = molecular target: T4, FLAG-tagged FLI1 (human); assay: as above
[4] = molecular target: T5, ERG full-length fused to a Gaussia princeps luciferase fragment (human) (UniProt P11308); assay: split reporter; Gaussia princeps luciferase complementation (gPCA): GLucN1 and GLucN2 fusions co-transfected in HEK293T cells, luminescence of lysates 24 h after transfection
T5 sequence: T1 sequence

[5] = molecular target: T1, endogenous ERG (human (endogenous in HeLa)); assay: co-IP; endogenous ERG immunoprecipitated with anti-ERG antibody and Protein G magnetic beads from HeLa lysates (IPLS buffer, 120 mM NaCl, 0.5% NP-40), lysates incubated 30 min at 37°C with or without RNase A (200 μg/ml); Western blot; remark: listed apart in the source

binding [1]: binds
Molecule: SF3B3 (from UniProt Q15393 1-1217)

binding [1]: binds
Molecule: SF3B2 (from UniProt Q13435 1-895)

binding [1]: binds
Molecule: U1–70K (from UniProt P08621 1-437)

binding (FLAG-tagged ERG (human)): binds
binding (FLAG-tagged FEV (human)): binds
binding (FLAG-tagged FLI1 (human) [2]): binds
B1: HA-tagged RBFOX1 (protein, UniProt Q9NWB1 1-397)
chain: MNCEREQLRGNQEAAAAPDTMAQPYASAQFAPPQNGIPAEYTAPHPHPAPEYTGQTTVPEHTLNLYPPAQTHSEQSPADTSAQTVSGTATQTDDAAPTDGQPQTQPSENTENKSQPKRLHVSNIPFRFRDPDLRQMFGQFGKILDVEIIFNERGSKGFGFVTFENSADADRAREKLHGTVVEGRKIEVNNATARVMTNKKTVNPYTNGWKLNPVVGAVYSPEFYAGTVLLCQANQEGSSMYSAPSSLVYTSAMPGFPYPAATAAAAYRGAHLRGRGRTVYNTFRAAAPPPPIPAYGGVVYQDGFYGADIYGGYAAYRYAQPTPATAAAYSDSYGRVYAADPYHHALAPAPTYGVGAMNAFAPLTDAKTRSHADDVGLVLSSLQASIYRGGYNRFAPY

binding (FLAG-tagged EWS (human)): no binding
binding (FLAG-tagged FLI1 (human) [3]): binds
binding (FLAG-tagged ERG (human)): binds
binding (FLAG-tagged FEV (human)): binds
binding (FLAG-tagged FLI1 (human) [2]): binds
B2: Myc-tagged RBFOX2 (protein, UniProt O43251 1-390)
chain: MQNEPLTPGYHGFPARDSQGNQEPTTTPDAMVQPFTTIPFPPPPQNGIPTEYGVPHTQDYAGQTGEHNLTLYGSTQAHGEQSSNSPSTQNGSLTTEGGAQTDGQQSQTQSSENSESKSTPKRLHVSNIPFRFRDPDLRQMFGQFGKILDVEIIFNERGSKGFGFVTFENSADADRAREKLHGTVVEGRKIEVNNATARVMTNKKMVTPYANGWKLSPVVGAVYGPELYAASSFQADVSLGNDAAVPLSGRGGINTYIPLISLPLVPGFPYPTAATTAAAFRGAHLRGRGRTVYGAVRAVPPTAIPAYPGVVYQDGFYGADLYGGYAAYRYAQPATATAATAAAAAAAAYSDGYGRVYTADPYHALAPAASYGVGAVASLYRGGYSRFAPY

binding [4]: binds
B3: RBFOX2 fused to a Gaussia princeps luciferase fragment (protein, UniProt O43251 1-390)
chain: B2 chain

binding [5]: binds
B4: endogenous RBFOX2 (HeLa cells) (protein, UniProt O43251 1-390)
chain: B2 chain

From publication PMC8136815
